Among all 310,000 compounds or so, about 14,000 (4.5%) showed an effect of 50% or more. Effects have a minus sign here. This is one part of the list.
Each compound was assayed against human ether-à-go-go-related gene (hERG) potassium channel (human, UniProt Q12809) (assay: primary screen, population patch clamp on CHO cells stably expressing hERG).
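Further: peak tail current of the secondary pulse compared with the same well before compound.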

Chain of human ether-à-go-go-related gene (hERG) potassium channel (Q12809 whole entry, looked up): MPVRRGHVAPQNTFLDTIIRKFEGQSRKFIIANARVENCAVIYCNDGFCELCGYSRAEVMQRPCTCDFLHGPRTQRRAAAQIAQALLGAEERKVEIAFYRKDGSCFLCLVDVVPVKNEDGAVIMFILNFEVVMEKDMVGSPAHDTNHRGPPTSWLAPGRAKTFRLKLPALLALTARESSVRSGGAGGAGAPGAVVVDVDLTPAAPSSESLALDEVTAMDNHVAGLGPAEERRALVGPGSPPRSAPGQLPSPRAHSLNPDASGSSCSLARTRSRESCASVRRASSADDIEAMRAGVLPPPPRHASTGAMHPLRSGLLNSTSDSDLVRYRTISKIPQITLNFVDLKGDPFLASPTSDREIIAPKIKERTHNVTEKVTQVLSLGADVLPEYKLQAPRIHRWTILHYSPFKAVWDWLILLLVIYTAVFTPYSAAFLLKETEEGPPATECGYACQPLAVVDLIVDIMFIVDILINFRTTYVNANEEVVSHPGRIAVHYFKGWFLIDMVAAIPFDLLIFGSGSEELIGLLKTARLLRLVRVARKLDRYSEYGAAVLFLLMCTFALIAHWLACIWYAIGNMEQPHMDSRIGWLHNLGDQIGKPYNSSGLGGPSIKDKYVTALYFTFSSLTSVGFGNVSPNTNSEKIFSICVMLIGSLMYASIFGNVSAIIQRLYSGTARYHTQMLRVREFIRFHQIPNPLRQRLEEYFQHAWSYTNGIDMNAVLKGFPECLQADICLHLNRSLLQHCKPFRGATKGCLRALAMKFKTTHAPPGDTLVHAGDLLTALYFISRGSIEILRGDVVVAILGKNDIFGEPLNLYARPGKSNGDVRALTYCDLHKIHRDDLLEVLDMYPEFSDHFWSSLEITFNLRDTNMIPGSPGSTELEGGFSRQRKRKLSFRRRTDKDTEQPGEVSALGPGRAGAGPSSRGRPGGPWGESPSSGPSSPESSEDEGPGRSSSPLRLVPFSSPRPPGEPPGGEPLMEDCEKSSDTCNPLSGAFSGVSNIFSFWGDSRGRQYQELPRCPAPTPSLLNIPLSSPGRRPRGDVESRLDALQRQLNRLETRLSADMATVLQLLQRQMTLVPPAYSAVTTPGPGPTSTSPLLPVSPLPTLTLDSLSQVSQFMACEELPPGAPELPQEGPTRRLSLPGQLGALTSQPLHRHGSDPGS

Compound | hERG current change (%, negative = inhibition) at 10uM
COc1cccc(CN2CCCC(N3CCc4ccccc4C3)C2)c1O (stereo not drawn) | -17.7%
Cc1ccc(OCC(=O)N2CCN(C(=O)CCC3CCCC3)CC2)cc1 | -54.3%
O=c1cnc(-c2ccc(Cl)cc2)cn1O | 23.2%
O=C(Nc1ccc2oc(-c3ccncc3)nc2c1)c1ccc([N+](=O)[O-])o1 | -11.9%
O=C(NC1CC1)C1CCN(C2CCN(Cc3ccccc3C(F)(F)F)CC2)CC1 | -53.1%
CC(C)c1ccc(Nc2c([N+](=O)[O-])c(=O)n(C)c3ccccc23)cc1 | -21.8%
O=C(COc1ccc2ccccc2c1)NNC(=O)Nc1ccccc1F | 13.5%
Cc1cc(C(=O)CSc2nc3ccccc3n2CCC#N)c(C)n1Cc1cccs1 | 2.04%
CC1CCCC(NC(=O)COC(=O)Cc2ccsc2)C1C (stereo not drawn) | -7.65%
O=c1c2ccccc2oc2nc(-c3cccs3)n(CCc3ccccc3)c(=O)c12 | 6.84%
CCn1ncc(NC(=S)Nc2ccc3c(c2)OCO3)c1C(N)=O | 37.9%
COc1ccc(C(=O)Nc2ccc([N+](=O)[O-])cn2)cc1OC | -22.6%
Cc1cc(N)n(-c2ccc(S(N)(=O)=O)cc2[N+](=O)[O-])n1.O=C(O)C(F)(F)F | 23.2%
CC(C)Cc1nc(N2CCN(C(=O)c3ccco3)CC2)c(C#N)c2c1CCC2 | -33.2%
CCOc1ccc(C(=O)Nc2ccccc2C(=O)O)cc1 | 8.2%
COc1ccc2oc(C(=O)OCC(=O)NCC3CCCO3)c(C)c2c1 (stereo not drawn) | 2.35%
COC(=O)c1ccc(OCC(O)CN2CCN(CC(O)COc3ccc(C(=O)OC)cc3)CC2)cc1 (stereo not drawn) | -72.9%
COc1ccc(/C(O)=C2\C(=O)C(=O)N(c3cc(C)on3)C2c2cccc(OC)c2OC)cc1C (stereo not drawn) | -4.72%
Cc1ccc(C(=O)O/N=C(\N)c2cccc([N+](=O)[O-])c2)cc1 | 1.58%
Cc1ccc(S(=O)(=O)N(CC(=O)N2CCOCC2)c2ccc(C(C)C)cc2)cc1 | -34.5%
CCc1nc(C(N)=O)c2[nH]c(=O)n(-c3ccccc3F)c2n1 | 11.6%

Compound | hERG current change (%, negative = inhibition) at 10uM
COc1ccc(CNC(=O)COc2cc3c(c4oc(=O)cc(C)c24)CCC(C)(C)O3)cc1OC | -31.1%
CCN(CC)S(=O)(=O)c1ccc2c(c1)c(=O)c(C(=O)N1CCN(c3ccccn3)CC1)cn2C | -15.6%
CCc1ccccc1N(C(C)=O)c1nc(CCl)cs1 | 6.77%
COc1ccc(COC(=O)C2CC(=O)N(Cc3ccc(C)cc3)C2)cc1 (stereo not drawn) | -58.3%
CN1CCN(c2ccc(Cl)cc2NC(=O)/C=C/c2ccc(F)cc2)CC1 | -75.6%
CCc1ccc(-c2nc(SCC(=O)N(C)C3CCS(=O)(=O)C3)n[nH]2)cc1 (stereo not drawn) | 2.27%
CCCCN(C(=O)c1[nH]c(C)c(C(C)=O)c1C)c1c(N)n(CCCC)c(=O)[nH]c1=O | -7.62%
CCC(=O)c1c[nH]c(C(=O)NCc2cccs2)c1 | 3.35%
O=C(CSc1nnc(NC(=O)c2ccccc2)s1)NC1CCCC1 | 8.09%
CCOc1cc(CNCc2ccccn2)ccc1OCC(=O)NC(C)(C)C.Cl | -1.89%
COc1cc(NC(=O)C2CCCO2)c(OC)cc1NC(=O)c1ccccc1 (stereo not drawn) | 8.17%
CCOc1cc(C)c(C(C)C)cc1S(=O)(=O)NCc1ccccn1 | 0.243%
CC(=O)c1ccc(NC(=O)c2ccc(C)c(Br)c2)cc1 | 10.1%
Cc1c(-c2ccccc2)cnc2c(C)cccc12 | 22%
CCC(C)NC(=O)C1CCN(S(=O)(=O)c2ccc(OC)cc2)CC1 (stereo not drawn) | 19.1%
COc1ccc(Cl)cc1S(=O)(=O)N1CCCC(C(=O)N2CCOCC2)C1 (stereo not drawn) | -69.4%
O=C(NC12CC3CC(CC(C3)C1)C2)N1CCN(c2ncccn2)CC1 | 25.5%
COc1ccc(N2Cc3ccc(C(=O)N/N=C\c4ccc(O)cc4O)cc3C2)cc1 | 23.4%
CCOC(=O)c1[nH]c(C)c(C(=O)N2CCc3ccccc32)c1C | -12.6%
CCOC(=O)c1sc(NC(=O)CSc2ncn[nH]2)c(C#N)c1C | -12.3%
COc1ccc(C(=O)OCC(=O)NC23CC4CC(CC(C4)C2)C3)c(OC)c1OC | -37.2%

From PMC4336329 (PLoS ONE, 2015)
